This is an account of results in the RNAGym collection of RNA variant scans (doi:10.7554/elife.90254).

Read counts are not given, so values of variants with three or more changes are uncertain.

The chains are these.
B1: LINE1-mini (parent)
chain: GGCAGAGCUCAACACAGCGUGGCAAAGUGGCUGUGGCUAGACUGCC

Variants of B1 are the subject of this data set. Put plainly: self-cleavage, relative activity (ratio to wild type); higher = more cleavage; in vitro, sequencing; the parent is a self-cleaving ribozyme.
On to GGCAGAGCUAAACACAGAGUGGCAAAGUGGCUGUGGCUAAACUUCC [C10A C18A G40A G44U], for which the self-cleavage turned out to be 0.
As to GGCAGAGCUAAACACAGUGUGUCAAAGUGGCUGUGGCUAGACUGCC [C10A C18U G22U], the self-cleavage was found to be 0.05.
To GGCAGAGCUAAACACAGUGUGACAAAGUGGCUGUGGCUAGACUGCC [C10A C18U G22A] belongs 0.08; to GGCAGAGCUAAACAUAGCGUGGCAAAGUGGCUGUGGCUAGACUGCA [C10A C15U C46A], 0; to GGCAGAGCUAAACAUAGCGUGGCAAAGUAGCUGUGGAUAGACUGCC [C10A C15U G29A C37A], 0.01.
Consider GGCAGAGCUAAACAAAGCGUGGCAAAGUGGCUGGCCCUAGAAUGCC [C10A C15A U34G G35C G36C C42A], for which the self-cleavage worked out at 0.01.
Take GGCAGAGCUAAACAUAGCGUGGCCAAGUGGCUGUGGCUAGACUGCC [C10A C15U A24C]: the self-cleavage was determined as 0.04.
Turning to GGCAGAGCUAAACACAGCGUGGGAAAGUCGCUGUGGCUAGACUGCC [C10A C23G G29C], the self-cleavage is 0.03.
For GGCAGAGCUAAACAAAGCGAGGCAAAGUGGUUGUGGCUAGACUGCC [C10A C15A U20A C31U], the self-cleavage was 0.03.
Turning to GGCAGAGCUAAACACAGCGUGGCAAAGUGGCUGUGGUUCGACUGCC [C10A C37U A39C], the self-cleavage turned out to be 0.05.
Take GGCAGAGCUAAACACACCCUGGCAAAGUGGCUGUGGCUAGACUGCC [C10A G17C G19C]: the self-cleavage stood at 0.08.
To GGCAGAGCUAAACAGAGCGUGGCAAAUUGGCUGUGGCUAGACUGCC [C10A C15G G27U] belongs 0.02; to GGCAGAGCUAAACAAUGCGUGGCAAAGCGGCUGUGGCUAGACUGCC [C10A C15A A16U U28C], 0.05.
As to GGCAGAGCUAAACACAGAGGGGCAGAGUGGCUGUGGUUAGACUGCC [C10A C18A U20G A25G C37U], the self-cleavage worked out at 0.
In the case of GGCAGAGCUAAACAACGUGUGGCAGAGUGGCUGUGGCUAGACUGCC [C10A C15A A16C C18U A25G], the self-cleavage was determined as 0.02.
Turning to GGCAGAGCUAAACAAAGCGUGGCCAAGUGGCUGUGGCUAGACUGCC [C10A C15A A24C], the self-cleavage came out at 0.07.
The value for GGCAGAGCUAAACACACCCUGGCAAAGUGGCGGUAGCUAGACUGCC [C10A G17C G19C U32G G35A] was 0.01.
On to GGCAGAGCUAAACACAGCGUGGCAAAGUGGGUGUGGCAAGACUACC [C10A C31G U38A G44A], for which the self-cleavage stood at 0.02.
To GGCAGAGCUAAACACAGCGUGGCAAAGUGGCUGUGGCUAGACUGGU [C10A C45G C46U] belongs 0.02; to GGCAGAGCUAAACACAUCGUGGCAAAGUGGCUGUGGCUAAACUGCC [C10A G17U G40A], 0.02; to GGCAGAGCUAAACACACAAUGGCAGAGUGGCUGUGGCUAGACUGCC [C10A G17C C18A G19A A25G], 0.04.
Turning to GGCAGAGCUAAACAUACCGUUGGAAAGUGGCUGUGACUAGACUGCC [C10A C15U G17C G21U C23G G36A], the self-cleavage is 0.03.
For GGCAGAGCUAAACACAGAGUGGCAAAAUGGCUGUGGCUAGACUGCC [C10A C18A G27A], the self-cleavage is 0.11.
For GGCAGAGCUAAACACAGCGUGGCAAAGUGGUUUUGGCUCGACUGCC [C10A C31U G33U A39C], the self-cleavage worked out at 0.01.
To GGCAGAGCUAAACACAGGGCGGCAAAGUGGCUGUGGCUAGACUGCC [C10A C18G U20C] belongs 0.07; to GGCAGAGCUAAACACAGCGUGGCAAAGUGGUUGUGGCUUAACUGCC [C10A C31U A39U G40A], 0.06; to GGCAGAGCUAAACACAGCGUGGCAAAGUGGAUGUGGCUAGAAUGCC [C10A C31A C42A], 0.02.
Consider GGCAGAGCUAAACACAGCGUGGGAAAGUGACUGUGGCUGGACUGCC [C10A C23G G30A A39G], for which the self-cleavage came out at 0.01.
GGCAGAGCUAAACACAGUGUGGCAAAGUGACUGUGGCUAGAAUGCC [C10A C18U G30A C42A]: the self-cleavage turned out to be 0.
The value for GGCAGAGCUAAACACACCGUGGCACAGAGGCGGUCAGUAGAUUGCC [C10A G17C A25C U28A U32G G35C G36A C37G C42U] was 0; that for GGCAGAGCUAAACAAAGCGUGGCAAAGUGACUGUGGCUAGACUGCC [C10A C15A G30A] was 0.01; that for GGCAGAGCUAAACAUAGCAUGGCCAAGUGGCUGUGGCUAGACUGCC [C10A C15U G19A A24C] was 0.07.
Regarding GGCAGAGCUAAACACAGCGUGGCAAAGUGGUUGUGGCUAGUAUGCC [C10A C31U A41U C42A], the self-cleavage was 0.
In the case of GGCAGAGCUAAACACAGUGUGGCUAAGUGGCUGUGGGCAGACUGCC [C10A C18U A24U C37G U38C], the self-cleavage is 0.
GGCAGAGCUAAAUACAGCGGGGCAAAGUGGCUGUGGCUAGACUGCC [C10A C13U U20G]: the self-cleavage came out at 0.02.
In the case of GGCAGAGCUAAACACAGUAUGGUAUAGUGGCUGUGGAUCGACUUCU [C10A C18U G19A C23U A25U C37A A39C G44U C46U], the self-cleavage came out at 0.
To GGCAGAGCUAAACACAGCGUGGUAAAGUUGCUGUGGCUGGACUGCC [C10A C23U G29U A39G] belongs 0.04; to GGCAGAGCUAAAUACAGCGUGGCAAAGUGGCUUUGGCUAGACUUCC [C10A C13U G33U G44U], 0.02; to GGCAGAGCUAAACACAGCGUGGCAAAGUGGUUGUGGCUAGACUGUC [C10A C31U C45U], 0.03.
The value for GGCAGAGCUAAACACAGAGUGGCUAUGUGGCUUUGGAUAGACUGCC [C10A C18A A24U A26U G33U C37A] was 0.01.
To GGCAGAGCUAAACACAGCGUGGUAAAGUGGAUCUGGCUAGAAUGCC [C10A C23U C31A G33C C42A] belongs 0.02.
Regarding GGCAGAGCUAAACACAGUGUUGCAAAGUGGCUGUGGCUAGUCUGUU [C10A C18U G21U A41U C45U C46U], the self-cleavage is 0.01.
As for GGCAGAGCUAAACAGAGCGUCGCAAAGUGGCUGUGGCUAGACUGCC [C10A C15G G21C], the self-cleavage turned out to be 0.04.
In the case of GGCAGAGCUAAACACAGGGUGGCAAAGUGGAUGUGGCUAGACUGCC [C10A C18G C31A], the self-cleavage was determined as 0.02.
The value for GGCAGAGCUAAACACAGCGUGGCAAAGUGGCUGUGGAUAGACUCCC [C10A C37A G44C] was 0.02; that for GGCAGAGCUAAACAAAGCGUGGGAAAGUGGUUGUGGCUAGACUGCC [C10A C15A C23G C31U] was 0.
Take GGCAGAGCUAAACAGAGCGUGGCAAAGUGGCUGUGACUAGACUGCC [C10A C15G G36A]: the self-cleavage stood at 0.
To GGCAGAGCUAAACACAGUGUGGCACAGUGGCUGUGGCUAGACUUCC [C10A C18U A25C G44U] belongs 0.03; to GGCAGAGCUAAAUACAGCGUGGCAAAGUGGCUGUAUCUAGACUGCC [C10A C13U G35A G36U], 0.01; to GGCAGAGCUAAAUACAGCGUGGCAAAGUGGCUGUGGCUAGACUUCC [C10A C13U G44U], 0.02.
GGCAGAGCUAAACACAGGGUGACAAAGGGGCUGUGGCUAGAGAGCC [C10A C18G G22A U28G C42G U43A]: the self-cleavage turned out to be 0.01.
On to GGCAGAGCUAAAUACAGCGUGGCAAAGUAGCUGUGGCUAGACUGCC [C10A C13U G29A], for which the self-cleavage is 0.02.
Turning to GGCAGAGCUAAACACAGGGCGCCAAAGAGGCUGUGGCGAGACUGCC [C10A C18G U20C G22C U28A U38G], the self-cleavage was determined as 0.05.
Take GGCAGAGCUAAACAGCGCUUGGCAAAGUGGCUGUGGCUAGACUGCC [C10A C15G A16C G19U]: the self-cleavage was found to be 0.
As to GGCAGAGCUAAACACAACGUGUCAAAGUGGCUGUGCCUAGACUGCC [C10A G17A G22U G36C], the self-cleavage stood at 0.04.
As to GGCAGAGCUAAACACAGCGUGGAAAAGUGGCGGUGGCUAGACUGCC [C10A C23A U32G], the self-cleavage came out at 0.04.
